# Laboratory results as given in article PMC4336329 (PLoS ONE, 2015).
# Hit rate of the full screen: of about 310,000 compounds, about 14,000 (4.5%) showed an effect of 50% or more. Effects have a minus sign here. The list shows a part of the results.
# Target: human ether-à-go-go-related gene (hERG) potassium channel (human, UniProt Q12809)
# Assay: primary screen, population patch clamp on CHO cells stably expressing hERG
# 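Note: peak tail current of the secondary pulse compared with the same well before compound.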
# Sequence of human ether-à-go-go-related gene (hERG) potassium channel (Q12809 whole entry, looked up): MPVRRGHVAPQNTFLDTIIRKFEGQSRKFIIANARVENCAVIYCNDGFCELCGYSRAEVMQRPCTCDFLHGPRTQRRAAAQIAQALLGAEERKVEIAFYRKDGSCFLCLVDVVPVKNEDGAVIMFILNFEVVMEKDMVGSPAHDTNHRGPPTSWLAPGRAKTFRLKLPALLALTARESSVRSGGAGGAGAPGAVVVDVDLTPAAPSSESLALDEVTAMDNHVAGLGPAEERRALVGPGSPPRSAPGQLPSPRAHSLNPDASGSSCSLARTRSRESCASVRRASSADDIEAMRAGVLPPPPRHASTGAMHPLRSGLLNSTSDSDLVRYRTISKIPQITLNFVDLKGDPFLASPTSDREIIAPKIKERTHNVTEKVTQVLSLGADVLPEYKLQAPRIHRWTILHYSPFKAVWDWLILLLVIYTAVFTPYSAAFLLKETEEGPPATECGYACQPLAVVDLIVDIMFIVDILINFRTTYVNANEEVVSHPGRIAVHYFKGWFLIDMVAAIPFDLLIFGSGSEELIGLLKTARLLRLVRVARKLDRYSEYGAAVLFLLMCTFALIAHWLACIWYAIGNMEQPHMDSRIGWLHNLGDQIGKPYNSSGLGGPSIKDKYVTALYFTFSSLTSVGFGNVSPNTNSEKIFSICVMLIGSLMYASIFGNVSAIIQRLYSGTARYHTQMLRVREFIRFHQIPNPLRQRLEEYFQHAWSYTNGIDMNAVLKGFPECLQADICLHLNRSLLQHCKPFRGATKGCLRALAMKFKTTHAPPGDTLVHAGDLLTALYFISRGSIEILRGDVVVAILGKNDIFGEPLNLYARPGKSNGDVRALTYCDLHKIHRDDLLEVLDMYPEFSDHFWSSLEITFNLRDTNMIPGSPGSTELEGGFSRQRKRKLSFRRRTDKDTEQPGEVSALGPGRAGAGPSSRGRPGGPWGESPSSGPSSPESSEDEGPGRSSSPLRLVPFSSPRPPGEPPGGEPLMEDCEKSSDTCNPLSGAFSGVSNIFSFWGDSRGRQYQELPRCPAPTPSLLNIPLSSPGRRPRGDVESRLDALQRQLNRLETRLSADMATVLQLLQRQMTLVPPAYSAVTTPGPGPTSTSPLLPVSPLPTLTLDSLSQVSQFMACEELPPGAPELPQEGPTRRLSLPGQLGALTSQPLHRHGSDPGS
row,SMILES,"hERG current change (%, negative = inhibition) at 10uM [%]"
1,O=C(COC(=O)CSc1cccc2cccc(Cl)c12)Nc1ncc(C(F)(F)F)cc1Cl,1.87
2,Cc1occc1-c1nnc(SCC(=O)c2c(N)n(Cc3ccccc3)c(=O)n(C)c2=O)n1C,2.25
3,CC1CCc2sc(C(=O)N(C)CC(=O)Nc3ccc(N4CCOCC4)cc3)cc2C1 (stereo not drawn),-24.4
4,CC1CCCCN1CC(=O)Nc1ccc2c(c1)OCO2.O=C(O)C(=O)O (stereo not drawn),-20.1
5,Nc1ccc2c(c1)Cc1cc([N+](=O)[O-])ccc1-2,17.8
6,O=C(NC1CCCC1)C(c1ccncc1)N(C(=O)Cn1nnc(-c2ccccc2F)n1)c1cccc(F)c1 (stereo not drawn),18.4
7,O=C(O)c1ccccc1N1C(=O)C2C3CCC(C3)C2C1=O (stereo not drawn),0.673
8,Cc1ccccc1CC1SC(N)=NC1=O (stereo not drawn),11.9
9,S=c1nc(-c2ccc(Cl)cc2)[nH][nH]1,16.5
10,Cc1ccc(NS(C)(=O)=O)c(C(=O)c2ccccc2)c1,-19.7
11,COc1ccccc1-c1c(C)c(C)nc(N)c1C#N,2.84
12,Cc1ccc(C(=O)N2CCN(S(=O)(=O)c3ccccc3[N+](=O)[O-])C2)cc1,-19.3
13,COc1cc(CC(=O)Nc2ccc(Cl)c(C(F)(F)F)c2)cc(OC)c1OC,-5.35
14,CC(=O)N(Cc1ccc(F)cc1)C1=C(NCCc2ccccc2)C(=O)c2ccccc2C1=O,-0.648
15,Cc1ccc(NC(=O)CSCC(N)=O)cc1C,-0.0482
16,O=C1c2ccccc2OC2(C=Cc3ccccc3O2)N1Cc1ccccc1 (stereo not drawn),6.47
17,CC(NC(=O)c1ccc(Cl)c(S(=O)(=O)N2CCCCCC2)c1)c1cccnc1 (stereo not drawn),-52.3
18,Cc1cc(C)nc(SCC(=O)Nc2ccc(S(=O)(=O)Nc3nccs3)cc2)n1,-2.58
19,Nc1nc(-c2ccc(Cl)cc2)nn1C(=O)c1cccnc1,-9.97
20,Cc1ccc(S(=O)(=O)Nc2ccc(N3CCOCC3)cc2)cc1,15.6
21,Cc1ccc(Cc2c(C)nc3nc(SCC(=O)NCCCN4CCCCCC4)nn3c2C)cc1,-54.8
22,CC1(C)CC(=O)c2sc(NS(=O)(=O)c3ccc(Cl)cc3)nc2C1,12.2

row,SMILES,"hERG current change (%, negative = inhibition) at 10uM [%]"
1,CN(C)CCn1cnc2c1c(=O)n(C)c(=O)n2C.Cl,15.9
2,C(=N\Nc1nc(N2CCCCCC2)nc(N2CCCCCC2)n1)/c1ccccc1,15.7
3,O=C(COC(=O)c1ccc2c(c1)S(=O)(=O)N=C1CCCCCN12)NCCc1ccc(F)cc1,-3.75
4,COc1ccccc1NC(=O)c1cc([N+](=O)[O-])ccc1NCCN1C(=O)CCC1=O,-9.52
5,Fc1ccc(CN2CCCCCC2)c(F)c1,1.9
6,CCc1ccc(NC(=O)C2CCCN2S(=O)(=O)c2ccc3c(c2)C(C)(C)C(=O)N3C)cc1 (stereo not drawn),-51
7,O=C(CSc1nnc(-c2cccnc2)o1)OC1CCCCC1,0.805
8,CCCC(=O)NC(c1ccccc1OC)c1ccc2cccnc2c1O (stereo not drawn),-18
9,C=CCn1c(SCC(=O)Nc2ccccc2F)nnc1C(C)NC(=O)c1ccccc1F (stereo not drawn),-11.3
10,COc1ccc(-c2nc3ccccn3c2NCc2ccc3c(c2)OCO3)cc1,-82.4
11,O=S(=O)(c1ccc(Cl)cc1)N1CCN(Cc2c[nH]c3ccccc23)CC1,-18.8
12,C=CCNC(=O)c1ccc(NC(=O)CC2SC(N3CCCC3)=NC2=O)cc1 (stereo not drawn),6.78
13,CCN(CC)S(=O)(=O)c1ccc2nnn(O)c2c1,23.3
14,COc1ccccc1CO/N=C/NC(=O)c1c(OC)ccnc1Oc1ccc(F)cc1,-14.5
15,CCOC(=O)C1=C(COC(=O)CSc2ccc(Br)cc2)NC(=O)NC1C (stereo not drawn),6.33
16,Cc1c(NC(=O)C23CC4CC(CC(C)(C4)C2)C3)c(=O)n(-c2ccccc2)n1C,13.9
17,O=C1N/C(=C/c2cccs2)C(=O)N1Cc1ccc(Br)cc1,1.79
18,O=C(NCCCCc1ccccc1)c1ccccc1Br,3.94
19,CCOc1ccc(-c2ccc(SCc3ccccn3)nn2)cc1,1.15
20,COc1ccc(CCNC(=O)c2ccccc2C(=O)NCCc2ccc(OC)c(OC)c2)cc1OC,3.48
21,Cn1nc(-c2ccccc2)cc1NC(=O)C1CCCCC1,7.23
22,Cc1noc(C)c1CSc1nc2sc(C)c(C)c2c(=O)n1C1CCCC1,17.7

row,SMILES,"hERG current change (%, negative = inhibition) at 10uM [%]"
1,CCCS(=O)(=O)N1CCC(C(=O)NCc2ccco2)CC1,13.8
2,CCOC(=O)C1=C(COC(=O)CCOc2ccc(OCC)cc2)NC(=O)NC1C (stereo not drawn),-6.11
3,COC(=O)C1=C(C)N(CCCC(=O)O)C(=O)NC1c1ccc(Br)cc1 (stereo not drawn),-17.7
4,O=C(Nc1cccc(NC(=O)c2cccs2)c1)c1ccco1,1.77
5,O=C(Nc1nc(-c2ccccc2)cs1)c1ccc(S(=O)(=O)N2CCc3ccccc32)cc1,7.9
6,CN(C)S(=O)(=O)c1ccc(NC(=O)CN2CCCc3ccccc32)cc1,-5.36
7,COCCN(C(=O)CN1CCCc2ccccc21)c1c(N)n(Cc2ccccc2)c(=O)[nH]c1=O,-12.1
8,CC(=O)Nc1ccc(S(=O)(=O)NC(C)C(=O)OCC(=O)NC2CCCC2)cc1 (stereo not drawn),3.97
9,CC(NC(=O)COC(=O)CCc1ccc(S(=O)(=O)N2CCOCC2)cc1)C1CC2CCC1C2 (stereo not drawn),-1.16
10,Nc1nonc1OCCOCCOCCOc1nonc1N,25.3
11,CCCCn1c(N)c(N(CC(C)C)C(=O)CSCc2ccc(Cl)c(Cl)c2)c(=O)[nH]c1=O,-6.21
12,NC(=S)N/N=C/c1ccccc1[N+](=O)[O-],7.25
13,CCOC(=O)C1=C(C)Nc2nc3ccccc3n2C1c1ccccc1 (stereo not drawn),8.77
14,Cc1ccc(S(=O)(=O)NCCC2=CCCCC2)cc1C(N)=O,-34.7
15,Cc1onc(-c2ccccc2)c1CNS(=O)(=O)c1ccccc1[N+](=O)[O-],1.84
16,O=C1CC(Nc2cc(=O)[nH]c(=O)[nH]2)C(=O)N1c1ccccc1Cl (stereo not drawn),33.4
17,Cc1ccccc1OCC(=O)NCC(=O)OCC(=O)c1ccc([N+](=O)[O-])cc1,4.62
18,CC1C2(C)OC(=N)C(C#N)(C(C)O2)C1(C#N)C#N (stereo not drawn),19.8
19,S=C(NNC(=S)Nc1ccccc1)Nc1ccccc1,18.8
20,Cc1ccc(C(=O)O/N=C/c2c(C(F)(F)F)nn(C)c2Sc2ccc(Cl)cc2)cc1,4.4
21,CN1CCN(c2nc(-c3ccc(Cl)s3)cs2)CC1,-3.91
22,C[C@@H](NC(=O)c1[nH]cnc1C(=O)Nc1cccc(Cl)c1)c1ccccc1,2.01

row,SMILES,"hERG current change (%, negative = inhibition) at 10uM [%]"
1,O=C(/C=C/NNC(=O)c1ccc(Cl)cc1)c1ccccc1,30.7
2,Cn1c2ccccc2c(=O)c2c(=O)n(Cc3ccco3)c(COc3ccccc3)nc21,-19.7
3,Nc1nc(N2CCN(c3ccc(Cl)cc3)CC2)n[nH]1,4.91
4,CNCC(O)CN(c1ccccc1)c1ccccc1 (stereo not drawn),-39.8
5,CCCCNc1nc2ccccc2n1CC(=O)Nc1c(C)cccc1CC,-29.1
6,O=C(N/N=C/c1coc2ccc(Cl)cc2c1=O)c1ccncc1,6.28
7,CCOC(=O)c1cccc(NC(=O)CCn2nc(C)c(S(=O)(=O)N3CCCCC3)c2C)c1,-4.89
8,Cc1ccc(Nc2nc(N)nc(CSc3nc4ccccc4s3)n2)cc1,8.96
9,Clc1ccccc1OCc1nc(-c2ccccn2)no1,1.71
10,CCCOC1CCCN(C(=O)c2ccc(OC3CCN(Cc4ccccn4)CC3)cc2)C1 (stereo not drawn),-2.66
11,O=C(NC1(C(F)(F)F)C(=O)Nc2c1c(=O)[nH]c(=O)n2Cc1ccccc1)c1ccco1 (stereo not drawn),-1.81
12,COc1cccc(/C=C2\SC(=S)N(CCCC(=O)N3CCCCC3CCO)C2=O)c1 (stereo not drawn),1.1
13,CCCNS(=O)(=O)c1ccc(CCC(=O)NCc2ccc3c(c2)OCO3)cc1,-41
14,O=S(=O)(c1cc(Cl)ccc1Cl)N1CCNCC1,-0.903
15,O=S(=O)(c1ccc(Br)cc1)N1CCN=C1SCc1cccnc1,-15.4
16,CCOC(=O)c1[nH]c(COC(=O)CCCOc2ccccc2)c(C(=O)OCC)c1C,-1.62
17,N#C/C(=C\c1c(N2CCN(Cc3ccccc3)CC2)nc2ccccn2c1=O)S(=O)(=O)c1ccccc1,0.944
18,O=C(C1CC1)N1c2ccccc2Sc2ccccc21,7.2
19,CCN1CCN(CC2CC3C=CC2C3)CC1 (stereo not drawn),17.3
20,CC(C)c1ccc(NC(=O)C2CCCN(S(=O)(=O)c3cnc[nH]3)C2)cc1 (stereo not drawn),14.4
21,COc1ccccc1CN1CC(C(=O)NCCc2ccc(Cl)cc2)CC1=O (stereo not drawn),-5.32
